Source: PubChem BioAssay AID485294 (National Center for Advancing Translational Sciences (NCATS), 2010)
Hit rate of the full screen: of about 370,000 compounds, about 150 (0.041%) were called active. The shares of active, inactive and inconclusive entries below differ from those in the screen. Calls come from the whole dose curve; as a rule, active = well fitted inhibition curve with a large enough effect; inconclusive = small, poorly fitted or top-dose-only effect; inactive = flat fitted curve, though single readings scatter. Potencies of inconclusive entries are left out as doubtful fits.

These molecules were tested against Beta-lactamase (Escherichia coli (strain K12)) (UniProt P00811) (assay: qHTS Inhibitors of AmpC Beta-Lactamase (assay with detergent)). Conditions: AmpC hydrolysis of nitrocefin, absorbance 480 nm, 0.01% Triton; series mostly up to 114 µM.
UniProt P00811, sequence (P00811 whole entry, looked up): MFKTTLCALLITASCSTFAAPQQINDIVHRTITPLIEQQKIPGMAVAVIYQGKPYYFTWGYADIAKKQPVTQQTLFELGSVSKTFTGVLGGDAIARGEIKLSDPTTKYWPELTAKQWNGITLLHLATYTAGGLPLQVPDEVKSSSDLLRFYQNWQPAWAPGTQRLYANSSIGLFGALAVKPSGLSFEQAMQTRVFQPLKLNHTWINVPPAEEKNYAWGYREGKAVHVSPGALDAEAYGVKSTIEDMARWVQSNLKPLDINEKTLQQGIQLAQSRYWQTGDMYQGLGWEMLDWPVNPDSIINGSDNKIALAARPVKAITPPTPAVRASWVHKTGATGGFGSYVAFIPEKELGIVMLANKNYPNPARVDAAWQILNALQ
How it was run: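 20 mM phosphate pH 7.0 + 0.01% (detergent screen) or 0.0001% Triton X-100; 5.3 nM AmpC reagent; cpd preinc 15 min RT; nitrocefin (800 uM stock) to start; A480 q20 s × 4 min; Activity was normalised to no-enzyme and no-compound control wells.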
Note: nearly all actives have a fitted effect of over 25% in size.
Potency is the fitted concentration of half-maximal effect; tags give direction and shape of the fitted curve.

| Structure (SMILES) | Potency |
| --- | --- |
| CC[C@H](C)Cc1cn([C@@H](CCCN=C(NC(=O)OC(C)(C)C)NC(=O)OC(C)(C)C)C(=O)NCCCCCCCCCCC(=O)N2CCN(C(=O)OC(C)(C)C)CC2)nn1 | inconclusive [inhibitor, full curve, poor fit] |
| COc1ccc(OCCCn2cc(/C=C3/C(=N)N4C=C(C)SC4=NC3=O)c3ccccc32)cc1 | inconclusive [inhibitor, full curve, poor fit] |
| Oc1c(C=C2N=c3ccccc3=N2)sc(=S)n1C1CCCCC1 | inconclusive [inhibitor, full curve, poor fit] |
| O=C(Cn1c(=O)oc2cc(S(=O)(=O)N3CCc4ccccc43)ccc21)N1CCCCC1 | inconclusive [inhibitor, full curve, poor fit] |
| Oc1ccc(/C=N/Nc2ncnc3c2ncn3Cc2ccccc2)cc1O | inconclusive [inhibitor, single point] |
| CCOc1ccc(-n2ccnc(SCC(=O)NCc3cccc(OC)c3)c2=O)cc1 | inconclusive [inhibitor, partial curve] |
| COc1ccc(Cl)cc1C(=O)Nc1cccc2ncccc12 | inconclusive [inhibitor, full curve, poor fit] |
| Cc1ccc(C)c(S(=O)(=O)NCc2ccc(C(=O)N3CCCCCC3)cc2)c1 | inconclusive [inhibitor, partial curve] |
| COc1cccc(OC)c1C(=O)Nc1ccc(S(=O)(=O)Nc2ncccn2)cc1 | inconclusive [inhibitor, full curve] |
| CCOc1ccc(Br)cc1S(=O)(=O)Nc1cccc(S(=O)(=O)N(CC)CC)c1 | inconclusive [inhibitor, full curve, poor fit] |
| Cc1sc2nc(CN(Cc3cccs3)C(=O)C3CC3)[nH]c(=O)c2c1C | inconclusive [inhibitor, partial curve, poor fit] |
| CSc1ccccc1COC(=O)Nc1ccccc1C | inconclusive [inhibitor, full curve, poor fit] |
| CSc1nc2nc(-c3cccc(C(F)(F)F)c3)ccn2n1 | inconclusive [inhibitor, full curve] |
| CCOC(=O)N1CCN(C(c2ccc(C(C)C)cc2)c2sc3nc(C)nn3c2O)CC1 (stereo not given) | inconclusive [inhibitor, partial curve, poor fit] |
| CSCC[C@H](NC(=O)OC(C)(C)C)c1nnc(SCC(N)=O)o1 | inconclusive [inhibitor, partial curve, poor fit] |
| CN1CCN(C(=O)Cn2c(-c3cccs3)cc3ccccc32)CC1 | inactive |
| CCCc1ccc(Oc2cn[nH]c2-c2ccc(O)c(C)c2O)cc1 | inconclusive [inhibitor, full curve] |
| CC1CCC2(CC1)Nc1ccccc1C(=O)N2c1ccccc1 (stereo not given) | inconclusive [inhibitor, full curve, poor fit] |
| O=C(c1ccc2[nH]c(=O)c(=O)[nH]c2c1)N1CCc2ccccc2C1 | inconclusive [inhibitor, full curve] |
| CC(C)(CNC(=O)c1cccs1)CNC(=O)c1cccs1 | inactive |
| CN(CC(=O)Nc1ccccc1Cl)C(=O)COC(=O)c1cc([N+](=O)[O-])ccc1N1CCOCC1 | inconclusive [inhibitor, single point] |
| CC(C)C(=O)Nc1nnc(SCC(=O)NCc2ccco2)s1 | inconclusive [inhibitor, full curve, poor fit] |

| Structure (SMILES) | Potency |
| --- | --- |
| Cc1oc2ccc(NS(=O)(=O)c3cccc4cccnc34)cc2c1C(=O)OC(C)C | inactive |
| CCc1ccc(NC(=O)CN(C(=O)N2CCN(CC)CC2)S(=O)(=O)c2ccc(C)cc2)cc1 | inconclusive [inhibitor, full curve, poor fit] |
| CCOC(=O)N1CCN(C(=O)CN(Cc2ccccc2)S(=O)(=O)c2ccc(OC)c(C)c2)CC1 | inconclusive [inhibitor, full curve] |
| c1nc(N2CCCCCC2)c2[nH]cnc2n1 | inconclusive [inhibitor, full curve] |
| COc1ccc(CN([C@H](C)CO)S(=O)(=O)N(Cc2ccccc2)[C@H](CO)C(C)C)cc1 | inactive |
| COc1cccc(OCCNC(=O)CSc2ccc(C(F)(F)F)cc2[N+](=O)[O-])c1 | inconclusive [inhibitor, full curve, poor fit] |
| Nc1nc(-c2cccnc2)nc(N2CCCCC2)n1 | inconclusive [inhibitor, partial curve, poor fit] |
| CCc1nnc(NC(=O)C2CCCN2S(=O)(=O)c2ccc(F)cc2)s1 (stereo not given) | inconclusive [inhibitor, full curve, poor fit] |
| N#CC1CC(c2ccccc2)Nc2cc(Cl)ccc2N1 (stereo not given) | inconclusive [inhibitor, full curve, poor fit] |
| Cc1ccc(NC(=O)c2nnn(Cc3cccc(C(F)(F)F)c3)c2N)c(C)c1 | inactive |
| c1ccc(Cc2noc(CN3CCCN(C4Cc5ccccc5C4)CC3)n2)cc1 | inactive |
| CC(=O)Nc1ccc(S(=O)(=O)N2CCSCC2)cc1 | inconclusive [inhibitor, partial curve, poor fit] |
| Cc1ccc(C(=O)c2oc3ccccc3c2NC(=O)c2cc(=O)c3cc(C)ccc3o2)cc1 | inactive |
| CN(C)c1ncc([N+](=O)[O-])cc1C(F)(F)F | inactive |
| c1ccc(-c2cn(C[C@H]3CC[C@@H]([C@@H]4CC[C@H](Cn5cc(-c6ccccn6)nn5)O4)O3)nn2)nc1 | inactive |
| COc1ccc(CNC(=O)CSc2nc(-c3ccccc3)cc(-c3cccs3)c2C#N)cc1 | inconclusive [inhibitor, full curve, poor fit] |
| Cc1ccc(C(=O)N2CCN(S(=O)(=O)c3ccc(Br)cc3)CC2)o1 | inconclusive [inhibitor, partial curve, poor fit] |
| CCn1cc(C(=O)NCc2ccc(Cl)cc2)c(=O)c2cc(S(=O)(=O)N3CCOCC3)ccc21 | inconclusive [inhibitor, partial curve, poor fit] |
| Cc1cc2nc(SCCOC(=O)Nc3ccc(Cl)cc3)nc(C)c2cc1C | inactive |
| COc1ccc(/C=C(\NC(=O)c2ccc(C)cc2)C(=O)Nc2ccc(C(=O)O)cc2)cc1 | inactive |
| CCC1=Nc2cc(C(=O)NCC3CCCO3)ccc2Sc2ccc(Cl)cc21 (stereo not given) | inactive |
| CCS(=O)(=O)NCCCCc1ccccc1 | inconclusive [inhibitor, full curve, poor fit] |

| Structure (SMILES) | Potency |
| --- | --- |
| CCC(=O)NC(=S)Nc1ccc(NC(=O)CC)cc1 | inconclusive [inhibitor, partial curve, poor fit] |
| CC(=O)N1C(C(=O)O)Cc2c([nH]c3ccccc23)C1C (stereo not given) | inconclusive [inhibitor, full curve, poor fit] |
| CC1Cc2ccccc2N1C(=O)c1ccc2c(c1)nnn2C (stereo not given) | inconclusive [inhibitor, full curve, poor fit] |
| N#CC1(NC(=O)CSc2nc3ccccc3s2)CCCCC1 | inconclusive [inhibitor, full curve, poor fit] |
| CN(C)C(CNC(C(=O)Nc1ccc([N+](=O)[O-])cc1Br)c1ccccc1)c1ccccc1 (stereo not given) | inactive |
| COc1ccc(OC)c(C2NC(=O)NC(C)=C2C(=O)Nc2ccc(C)cc2)c1 (stereo not given) | inconclusive [inhibitor, full curve, poor fit] |
| Cc1ccc(S(=O)(=O)c2ncccc2N)cc1 | inactive |
| Fc1ccc(C[n+]2c(-c3ccccc3)cc(-c3ccccc3)cc2-c2ccccc2)cc1 | inconclusive [inhibitor, partial curve] |
| O=C(O)CCCNCc1ccccc1F | inconclusive [inhibitor, single point] |
| O=C1CC(=O)CC(c2ccccc2)C1 | inactive |
| COc1ccc(OC)c(C2=NOC(C(=O)Nc3ccccc3SC)C2)c1 (stereo not given) | inconclusive [inhibitor, full curve, poor fit] |
| COc1cccc(C(=O)NC(=S)Nc2ccc([N+](=O)[O-])cc2C)c1 | inconclusive [inhibitor, single point] |
| Cc1ccc2nc(Nc3nc(CSc4nnnn4-c4ccccc4)cc(=O)[nH]3)nc(C)c2c1 | inactive |
| COCc1nnc(NS(=O)(=O)c2ccc(C)cc2)s1 | inconclusive [inhibitor, full curve, poor fit] |
| COCCN1C(=O)c2ccccc2C(C(=O)NCCCN2CCCC2)C1c1c[nH]c2ccccc12 (stereo not given) | inactive |
| CN(C)CCCNCCCNC(=O)c1ccncc1 | inconclusive [inhibitor, single point] |
| Cn1c(CNC(=O)CNS(=O)(=O)c2ccc(Br)cc2)cc(=O)n(C)c1=O | inactive |
| CN1C(=O)CC(N2CCC(C(N)=O)(N3CCCCC3)CC2)C1=O (stereo not given) | inconclusive [inhibitor, partial curve, poor fit] |
| COc1ccc(Cc2noc(COc3ccc(Cl)cc3)n2)cc1 | inconclusive [inhibitor, single point] |
| COc1ccc(/C=N/Nc2nonc2N)cc1 | inconclusive [inhibitor, full curve] |
| Cc1ccc2ncccc2c1NC(=S)NC(=O)c1ccccc1 | inconclusive [inhibitor, full curve] |
